PubChem BioAssay (NCI)
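Protocol summary: plate cells (96-well), add compound at 5 concentrations, incubate 48 h, interpolate endpoints linearly. GI50 = concentration required for 50% inhibition of growth. At the TGI there is no net growth.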

These compounds were tested on NCI-H322M lung (assay: growth of human tumour cells (NCI), 48 h).

| SMILES | GI50 | TGI |
| --- | --- | --- |
| O=C(CSc1nnc(-c2ccc(-c3nc4ccc(Cl)cc4[nH]3)cc2)o1)Nc1ccc(Br)cc1 | 3.31 µM | 16 µM |
| Cc1sc2c(c1C)C(c1ccc(Cl)cc1)=N[C@@H](CC(=O)NCCCCCNC(=O)COc1ccc(C3CCC(=O)NC3=O)cc1)c1nnc(C)n1-2 (stereo partly drawn) | 0.687 µM | > 100 µM |
| O=C(/C=C/c1ccc(Cl)cc1)c1nc2ccccc2n1Cc1ccc(F)cc1 | 16.6 µM | 52.1 µM |
| O=C(N=Nc1c(O)[nH]c2ccc(Br)cc12)c1ccc2nc(-c3ccccc3)[nH]c2c1 | 2.15 µM | 5.7 µM |
